Measured values taken from the supplement of paper PMC4967469.
The IC50 comes from the fitted curve, where viability falls to half of the control; where the fit passes the top or lowest dose, that dose stands as a limit. For AUC the same curve is integrated over the 256-fold range of doses and scaled to a fraction; it is 1 without any effect and falls as sensitivity rises. For some assays here: An inferred top dose comes from the curve model; the source does not state it.

Key:
Assay in all cases: Viability of human cancer cell lines after 72 h of drug (GDSC screen)
STF-62247 = compound: Cc1cccc(Nc2nc(-c3ccncc3)cs2)c1 [STF-62247]; details: top dose 10.24 µM; top dose inferred
Method: (§1)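 Human cancer cell lines in 384-well plates, medium with 10% serum, drug for 72 h over a 256-fold dose range (nine 2-fold or five 4-fold steps up to the top dose). Adherent lines were fixed and stained with the nucleic acid dye Syto60, suspension lines read with resazurin; signal relative to control wells, capped at 0 and 100%. One two-parameter sigmoid per drug and line, fitted in a mixed model over all curves with the slope shared within a line.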

Obatoclax mesylate = compound: COC1=CC(c2cc3ccccc3[nH]2)=N/C1=C\c1[nH]c(C)cc1C [Obatoclax mesylate]; details: top dose 16 µM
Method: as §1

CX-5461 = compound: Cc1cnc(CNC(=O)c2c(=O)c3ccc(N4CCCN(C)CC4)nc3n3c2sc2ccccc23)cn1 [CX-5461]; details: top dose 10.24 µM; top dose inferred
Method: as §1

CP724714 = compound: COCC(=O)NC/C=C/c1ccc2ncnc(Nc3ccc(Oc4ccc(C)nc4)c(C)c3)c2c1 [CP724714]; details: top dose 10.24 µM; top dose inferred
Method: as §1

| Cell Line | AUC (STF-62247) | IC50 (STF-62247) [µM] | AUC (Obatoclax mesylate) | IC50 (Obatoclax mesylate) [µM] | AUC (CX-5461) | IC50 (CX-5461) [µM] | AUC (CP724714) | IC50 (CP724714) [µM] |
| --- | --- | --- | --- | --- | --- | --- | --- | --- |
| CCK-81 (large intestine, adherent) | 0.979 | > 10.2 | 0.619 | 2.09 | 0.75 | 3.18 | 0.958 | > 10.2 |
| CFPAC-1 (pancreas, adherent) | 0.984 | > 10.2 | 0.236 | 0.15 | 0.977 | > 10.2 | 0.976 | > 10.2 |
| CHL-1 (melanoma, adherent) | 0.987 | > 10.2 | 0.144 | 0.0852 | 0.73 | 2.77 | 0.851 | 7.14 |
| CHP-212 (neuroblastoma, adherent) | 0.988 | > 10.2 | 0.166 | 0.107 | 0.87 | 8.33 | 0.981 | > 10.2 |
| CHSA0011 (chondrosarcoma, adherent) | 0.966 | > 10.2 | 0.79 | 10.5 | 0.962 | > 10.2 | 0.976 | > 10.2 |
| CHSA0108 (chondrosarcoma, adherent) | 0.926 | > 10.2 | 0.622 | 2.29 | 0.979 | > 10.2 | 0.976 | > 10.2 |
| COLO-205 (large intestine, suspension) | 0.988 | > 10.2 | 0.104 | < 0.0625 | 0.94 | > 10.2 | 0.979 | > 10.2 |
| COLO-678 (large intestine, semi-adherent) | 0.983 | > 10.2 | 0.68 | 3.71 | 0.985 | > 10.2 | 0.984 | > 10.2 |
| COLO-679 (melanoma, adherent) | 0.984 | > 10.2 | 0.127 | < 0.0625 | 0.965 | > 10.2 | 0.977 | > 10.2 |
| COLO-680N (oesophagus, adherent) | 0.986 | > 10.2 | 0.193 | 0.0994 | 0.986 | > 10.2 | 0.986 | > 10.2 |
| COLO-783 (melanoma, adherent) | 0.99 | > 10.2 | 0.759 | 5.4 | 0.991 | > 10.2 | 0.984 | > 10.2 |
| COLO-792 (melanoma, adherent) | 0.978 | > 10.2 | 0.213 | 0.146 | 0.986 | > 10.2 | 0.949 | > 10.2 |
| COR-L23 (large cell lung carcinoma, adherent) | 0.954 | > 10.2 | 0.164 | 0.0977 | 0.589 | 1.11 | 0.966 | > 10.2 |
| COR-L105 (lung adenocarcinoma, adherent) | 0.901 | > 10.2 | 0.313 | 0.265 | 0.902 | > 10.2 | 0.913 | > 10.2 |
| CP50-MEL-B (melanoma, adherent) | 0.973 | > 10.2 | 0.188 | 0.118 | 0.988 | > 10.2 | 0.978 | > 10.2 |
| CS1 (bone, adherent) | 0.955 | > 10.2 | 0.452 | 0.73 | 0.813 | 6.35 | 0.954 | > 10.2 |

| Cell Line | AUC (STF-62247) | IC50 (STF-62247) [µM] | AUC (Obatoclax mesylate) | IC50 (Obatoclax mesylate) [µM] | AUC (CX-5461) | IC50 (CX-5461) [µM] | AUC (CP724714) | IC50 (CP724714) [µM] |
| --- | --- | --- | --- | --- | --- | --- | --- | --- |
| Ca9-22 (head and neck, adherent) | 0.978 | > 10.2 | 0.156 | 0.0974 | 0.921 | > 10.2 | 0.954 | > 10.2 |
| Ca-Ski (cervix, adherent) | 0.959 | > 10.2 | 0.321 | 0.296 | 0.751 | 3.75 | 0.925 | > 10.2 |
| CaR-1 (large intestine, adherent) | 0.965 | > 10.2 | 0.695 | 4.7 | 0.949 | > 10.2 | 0.976 | > 10.2 |
| Calu-3 (lung adenocarcinoma, adherent) | 0.982 | > 10.2 | 0.311 | 0.255 | 0.983 | > 10.2 | 0.763 | 4.62 |
| Calu-6 (lung adenocarcinoma, adherent) | 0.983 | > 10.2 | 0.236 | 0.15 | 0.881 | > 10.2 | 0.978 | > 10.2 |
| Caov-3 (ovary, adherent) | 0.989 | > 10.2 | 0.571 | 1.52 | 0.952 | > 10.2 | 0.978 | > 10.2 |
| Capan-2 (pancreas, adherent) | 0.984 | > 10.2 | 0.408 | 0.531 | 0.963 | > 10.2 | 0.98 | > 10.2 |
| ChaGo-K-1 (non-small cell lung carcinoma, adherent) | 0.984 | > 10.2 | 0.407 | 0.531 | 0.981 | > 10.2 | 0.979 | > 10.2 |
| DAN-G (pancreas, adherent) | 0.978 | > 10.2 | 0.615 | 1.98 | 0.988 | > 10.2 | 0.975 | > 10.2 |
| DBTRG-05MG (glioma, adherent) | 0.972 | > 10.2 | 0.559 | 1.5 | 0.957 | > 10.2 | 0.975 | > 10.2 |
| DK-MG (glioma, adherent) | 0.961 | > 10.2 | 0.491 | 0.937 | 0.96 | > 10.2 | 0.978 | > 10.2 |
| DMS-53 (small cell lung carcinoma, adherent) | 0.985 | > 10.2 | 0.406 | 0.54 | 0.988 | > 10.2 | 0.971 | > 10.2 |
| DMS-273 (small cell lung carcinoma, adherent) | 0.962 | > 10.2 | 0.114 | < 0.0625 | 0.776 | 4.33 | 0.972 | > 10.2 |
| DOK (head and neck, adherent) | 0.976 | > 10.2 | 0.499 | 0.993 | 0.961 | > 10.2 | 0.931 | > 10.2 |
| DU-145 (prostate, adherent) | 0.964 | > 10.2 | 0.383 | 0.459 | 0.856 | 9.76 | 0.985 | > 10.2 |
